According to the supplement of paper PMC9151546:
Many values rest on one well or one pass, so single values are uncertain.

Legend:
CHO-K1 [1] = assay: micronucleus frequency (% of nucleated events); higher = more micronuclei (genotoxic)
CHO-K1 [2] = assay: relative survival (nuclei to bead ratio vs DMSO control) (% of vehicle control); higher = more surviving cells
Experimental: (§1)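 Flow-cytometric in vitro micronucleus assay (Litron MicroFlow) in CHO-K1 cells in 96-well plates, 19 concentrations (4.5-200 µM, n=1 per concentration). Without S9, cells were exposed for 24 h and sampled at 48 h. With Aroclor 1254-induced rat liver S9, cells were exposed for 3-4 h and sampled at 27-28 h. Read-outs are %MN and %hypodiploid nuclei relative to nucleated events, and relative survival as the nuclei-to-bead ratio versus the 1% DMSO vehicle control (x100).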

CHO-K1 [3] = assay: hypodiploid nuclei frequency (% of nucleated events); higher = more hypodiploid events (aneugenic)
Experimental: as §1
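For hypodiploid nuclei frequency (% of nucleated events) in this document: hypodiploid nuclei gated on a flow cytometer with 488 nm excitation after SYTOX Green staining, cultures at 37 °C, positive controls vinblastine without S9 and cyclophosphamide with S9.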
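For micronucleus frequency (% of nucleated events) in this document: cells lysed with nuclei stained by SYTOX Green, then micronucleus-gated events counted against nucleated events by flow cytometry with 488 nm excitation.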
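For relative survival (nuclei to bead ratio vs DMSO control) in this document: Lysed-cell nuclei stained with SYTOX Green and counted against counting beads by flow cytometry at 488 nm excitation, with vinblastine (no S9) and cyclophosphamide (plus S9) as positive controls.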

CC(O)CO (stereo not drawn) [1,2-Propylene glycol]
Conditions | hypodiploid nuclei frequency, CHO-K1 [3] [%] | micronucleus frequency, CHO-K1 [1] [%] | relative survival, CHO-K1 [2]
concentration: 4.44 (µM), S9 metabolic activation: with S9, exposure time: 3-4 hours | 0.33 | 1.26 | 65.5
concentration: 4.44 (µM), S9 metabolic activation: without S9, exposure time: 24 hours | 0.54 | 0.76 | 85
concentration: 5.55 (µM), S9 metabolic activation: with S9, exposure time: 3-4 hours | 0.22 | 0.95 | 75.1
concentration: 5.55 (µM), S9 metabolic activation: without S9, exposure time: 24 hours | 0.56 | 1.22 | 81.3
concentration: 6.93 (µM), S9 metabolic activation: with S9, exposure time: 3-4 hours | 0.14 | 1 | 99.3
concentration: 6.93 (µM), S9 metabolic activation: without S9, exposure time: 24 hours | 0.48 | 1 | 76.8
concentration: 8.66 (µM), S9 metabolic activation: with S9, exposure time: 3-4 hours | 0.21 | 1.06 | 88.7
concentration: 8.66 (µM), S9 metabolic activation: without S9, exposure time: 24 hours | 0.4 | 0.98 | 85
concentration: 10.8 (µM), S9 metabolic activation: with S9, exposure time: 3-4 hours | 0.21 | 1.08 | 80.5
concentration: 10.8 (µM), S9 metabolic activation: without S9, exposure time: 24 hours | 0.82 | 1.76 | 66.6
concentration: 13.5 (µM), S9 metabolic activation: with S9, exposure time: 3-4 hours | 0.24 | 0.88 | 99.8
concentration: 13.5 (µM), S9 metabolic activation: without S9, exposure time: 24 hours | 0.42 | 1.14 | 87.5
concentration: 16.9 (µM), S9 metabolic activation: with S9, exposure time: 3-4 hours | 0.18 | 0.68 | 84.5
concentration: 16.9 (µM), S9 metabolic activation: without S9, exposure time: 24 hours | 0.38 | 0.96 | 94.5
concentration: 21.2 (µM), S9 metabolic activation: with S9, exposure time: 3-4 hours | 0.18 | 1.08 | 57.8
concentration: 21.2 (µM), S9 metabolic activation: without S9, exposure time: 24 hours | 0.66 | 1.3 | 92.9
concentration: 26.4 (µM), S9 metabolic activation: with S9, exposure time: 3-4 hours | 0.24 | 1.36 | 75.6
concentration: 26.4 (µM), S9 metabolic activation: without S9, exposure time: 24 hours | 0.7 | 1.2 | 136
concentration: 33.1 (µM), S9 metabolic activation: with S9, exposure time: 3-4 hours | 0.26 | 1.58 | 73.9
concentration: 33.1 (µM), S9 metabolic activation: without S9, exposure time: 24 hours | 0.76 | 0.86 | 89.2
concentration: 41.3 (µM), S9 metabolic activation: with S9, exposure time: 3-4 hours | 0.34 | 1.82 | 72.9
concentration: 41.3 (µM), S9 metabolic activation: without S9, exposure time: 24 hours | 0.92 | 1.2 | 86.2
concentration: 51.6 (µM), S9 metabolic activation: with S9, exposure time: 3-4 hours | 0.26 | 0.92 | 78
concentration: 51.6 (µM), S9 metabolic activation: without S9, exposure time: 24 hours | 0.9 | 0.98 | 85
concentration: 64.6 (µM), S9 metabolic activation: with S9, exposure time: 3-4 hours | 0.26 | 1.44 | 91.1
concentration: 64.6 (µM), S9 metabolic activation: without S9, exposure time: 24 hours | 0.78 | 1.52 | 74.4
concentration: 80.7 (µM), S9 metabolic activation: with S9, exposure time: 3-4 hours | 0.28 | 1.38 | 82
concentration: 80.7 (µM), S9 metabolic activation: without S9, exposure time: 24 hours | 0.74 | 1.02 | 120
concentration: 101 (µM), S9 metabolic activation: with S9, exposure time: 3-4 hours | 0.2 | 1.58 | 99.8
concentration: 101 (µM), S9 metabolic activation: without S9, exposure time: 24 hours | 1.08 | 1.2 | 92.6
concentration: 126 (µM), S9 metabolic activation: with S9, exposure time: 3-4 hours | 0.25 | 1.3 | 88
concentration: 126 (µM), S9 metabolic activation: without S9, exposure time: 24 hours | 0.92 | 1.24 | 142
concentration: 158 (µM), S9 metabolic activation: with S9, exposure time: 3-4 hours | 0.19 | 0.74 | 73.1
concentration: 158 (µM), S9 metabolic activation: without S9, exposure time: 24 hours | 0.98 | 1.92 | 114
concentration: 197 (µM), S9 metabolic activation: with S9, exposure time: 3-4 hours | 0.25 | 1.83 | 81.3
concentration: 197 (µM), S9 metabolic activation: without S9, exposure time: 24 hours | 1.6 | 2.22 | 87.8
